{"source": "a collection of fitness landscapes (doi:10.1126/science.1257360)", "parents": {"B1": {"name": "PhoQ; a variant is named by its letters at X, in order, P23837 (parent)", "chain": "MKKLLRLFFPLSLRVRFLLATAAVVLVLSLAYGMVALIGYSVSFDKTTFRLLRGESNLFYTLAKWENNKLHVELPENIDKQSPTMTLIYDENGQLLWAQRDVPWLMKMIQPDWLKSNGFHEIEADVNDTSLLLSGDHSIQQQLQEVREDDDDAEMTHSVAVNVYPATSRMPKLTIVVVDTIPVELKSSYMVWSWFIYVLSANLLLVIPLLWVAAWWSLRPIEALAKEVRELEEHNRELLNPATTRELTSLVRNLNRLLKSERERYDKYRTTLTDLTHSLKTPLXXLQXXLRSLRSEKMSVSDAEPVMLEQISRISQQIGYYLHRASMRGGTLLSRELHPVAPLLDNLTSALNKVYQRKGVNISLDISPEISFVGEQNDFVEVMGNVLDNACKYCLEFVEISARQTDEHLYIVVEDDGPGIPLSKREVIFDRGQRVDTLRPGQGVGLAVAREITEQYEGKIVAGESMLGGARMEVIFGRQHSAPKDE"}}, "note": "Some of the results follow."}
{"variants_of": "B1", "experiment": "enrichment ratio after two sorts for PhoP signalling (ratio (wild type AVST 3.29)); higher = more functional", "conditions": "with PhoP (E. coli)"}
{"variant": "KCPD", "enrichment ratio": "≤ 0.25"}
{"variant": "IAAH", "enrichment ratio": "≤ 0.25"}
{"variant": "NGKN", "enrichment ratio": "≤ 0.25"}
{"variant": "SKYR", "enrichment ratio": "≤ 0.25"}
{"variant": "WIFA", "enrichment ratio": "≤ 0.25"}
{"variant": "VCHR", "enrichment ratio": "≤ 0.25"}
{"variant": "MCSH", "enrichment ratio": 4.62}
{"variant": "NQWF", "enrichment ratio": "≤ 0.25"}
{"variant": "LALK", "enrichment ratio": "≤ 0.25"}
{"variant": "PMFC", "enrichment ratio": "≤ 0.25"}
{"variant": "WATY", "enrichment ratio": "≤ 0.25"}
{"variant": "KHGI", "enrichment ratio": "≤ 0.25"}
{"variant": "YEYH", "enrichment ratio": "≤ 0.25"}
{"variant": "YFIT", "enrichment ratio": "≤ 0.25"}
{"variant": "IEYT", "enrichment ratio": "≤ 0.25"}
{"variant": "EKWF", "enrichment ratio": "≤ 0.25"}
{"variant": "RRLY", "enrichment ratio": "≤ 0.25"}
{"variant": "IPWH", "enrichment ratio": "≤ 0.25"}
{"variant": "VNPY", "enrichment ratio": "≤ 0.25"}
{"variant": "HAFH", "enrichment ratio": "≤ 0.25"}
{"variant": "DMGV", "enrichment ratio": "≤ 0.25"}
{"variant": "SRCY", "enrichment ratio": "≤ 0.25"}
{"variant": "FSKN", "enrichment ratio": "≤ 0.25"}
{"variant": "FADV", "enrichment ratio": "≤ 0.25"}
{"variant": "KLRM", "enrichment ratio": "≤ 0.25"}
{"variant": "WLYV", "enrichment ratio": "≤ 0.25"}
{"variant": "FATE", "enrichment ratio": "≤ 0.25"}
{"variant": "KQYY", "enrichment ratio": "≤ 0.25"}
{"variant": "MGDN", "enrichment ratio": "≤ 0.25"}
{"variant": "LSAT", "enrichment ratio": "≤ 0.25"}
{"variant": "TKDT", "enrichment ratio": "≤ 0.25"}
{"variant": "DRGD", "enrichment ratio": "≤ 0.25"}
{"variant": "GYNP", "enrichment ratio": "≤ 0.25"}
{"variant": "TAYE", "enrichment ratio": "≤ 0.25"}
{"variant": "GKFF", "enrichment ratio": "≤ 0.25"}
{"variant": "NDHF", "enrichment ratio": "≤ 0.25"}
{"variant": "STHK", "enrichment ratio": "≤ 0.25"}
{"variant": "EGFS", "enrichment ratio": "≤ 0.25"}
{"variant": "MQSN", "enrichment ratio": "≤ 0.25"}
{"variant": "MWYM", "enrichment ratio": "≤ 0.25"}
{"variant": "NVIY", "enrichment ratio": "≤ 0.25"}
{"variant": "DHGY", "enrichment ratio": "≤ 0.25"}
{"variant": "MHDF", "enrichment ratio": "≤ 0.25"}
{"variant": "YSQV", "enrichment ratio": "≤ 0.25"}
{"variant": "TSVL", "enrichment ratio": 1.48}
{"variant": "VYGD", "enrichment ratio": "≤ 0.25"}
{"variant": "WRKY", "enrichment ratio": "≤ 0.25"}
{"variant": "YAYD", "enrichment ratio": "≤ 0.25"}
{"variant": "RLWV", "enrichment ratio": "≤ 0.25"}
{"variant": "DEVW", "enrichment ratio": "≤ 0.25"}
{"variant": "LWRD", "enrichment ratio": "≤ 0.25"}
{"variant": "VETG", "enrichment ratio": "≤ 0.25"}
{"variant": "RYYA", "enrichment ratio": "≤ 0.25"}
{"variant": "FSHR", "enrichment ratio": "≤ 0.25"}
{"variant": "MKRR", "enrichment ratio": "≤ 0.25"}
{"variant": "MCPG", "enrichment ratio": "≤ 0.25"}
{"variant": "ITMK", "enrichment ratio": "≤ 0.25"}
{"variant": "FWIW", "enrichment ratio": "≤ 0.25"}
{"variant": "ACLR", "enrichment ratio": 8.18}
{"variant": "TQQC", "enrichment ratio": 3.39}
{"variant": "YPRP", "enrichment ratio": "≤ 0.25"}
{"variant": "QRTP", "enrichment ratio": "≤ 0.25"}
{"variant": "DLLR", "enrichment ratio": "≤ 0.25"}
{"variant": "MRGI", "enrichment ratio": "≤ 0.25"}
{"variant": "KTSH", "enrichment ratio": "≤ 0.25"}
{"variant": "LCYF", "enrichment ratio": "≤ 0.25"}
{"variant": "LSNP", "enrichment ratio": "≤ 0.25"}
{"variant": "TQCL", "enrichment ratio": 12.5}
{"variant": "MIWH", "enrichment ratio": 6.22}
{"variant": "LAAA", "enrichment ratio": "≤ 0.25"}
{"variant": "FCVD", "enrichment ratio": "≤ 0.25"}
{"variant": "NWLE", "enrichment ratio": "≤ 0.25"}
{"variant": "LIDP", "enrichment ratio": "≤ 0.25"}
{"variant": "WNTP", "enrichment ratio": "≤ 0.25"}
{"variant": "NTET", "enrichment ratio": "≤ 0.25"}
{"variant": "YWYA", "enrichment ratio": "≤ 0.25"}
{"variant": "HCLI", "enrichment ratio": 0.803}
{"variant": "KSFW", "enrichment ratio": "≤ 0.25"}
{"variant": "DCLC", "enrichment ratio": "≤ 0.25"}
{"variant": "GVPY", "enrichment ratio": "≤ 0.25"}
{"variant": "MLLE", "enrichment ratio": "≤ 0.25"}
{"variant": "ILAG", "enrichment ratio": "≤ 0.25"}
{"variant": "YCKY", "enrichment ratio": "≤ 0.25"}
{"variant": "AHRG", "enrichment ratio": "≤ 0.25"}
{"variant": "ITKV", "enrichment ratio": "≤ 0.25"}
{"variant": "TPDP", "enrichment ratio": "≤ 0.25"}
{"variant": "ISVD", "enrichment ratio": "≤ 0.25"}
{"variant": "IMGA", "enrichment ratio": "≤ 0.25"}
{"variant": "TVWQ", "enrichment ratio": 2.86}
{"variant": "NNVH", "enrichment ratio": "≤ 0.25"}
{"variant": "QADT", "enrichment ratio": "≤ 0.25"}
{"variant": "QQFT", "enrichment ratio": 2.46}
{"variant": "YQDG", "enrichment ratio": "≤ 0.25"}
{"variant": "KQFA", "enrichment ratio": "≤ 0.25"}
{"variant": "YNAE", "enrichment ratio": "≤ 0.25"}
{"variant": "QQVE", "enrichment ratio": "≤ 0.25"}
{"variant": "KAPW", "enrichment ratio": "≤ 0.25"}
{"variant": "VNLK", "enrichment ratio": "≤ 0.25"}
{"variant": "LDST", "enrichment ratio": "≤ 0.25"}
{"variant": "SNPR", "enrichment ratio": "≤ 0.25"}
{"variant": "MFMC", "enrichment ratio": "≤ 0.25"}
{"variant": "SPPF", "enrichment ratio": "≤ 0.25"}
{"variant": "MPKQ", "enrichment ratio": "≤ 0.25"}
{"variant": "LKML", "enrichment ratio": "≤ 0.25"}
{"variant": "YYYK", "enrichment ratio": "≤ 0.25"}
{"variant": "IERY", "enrichment ratio": "≤ 0.25"}
{"variant": "GDCS", "enrichment ratio": 1.33}
{"variant": "SYMS", "enrichment ratio": "≤ 0.25"}
{"variant": "QMQQ", "enrichment ratio": "≤ 0.25"}
{"variant": "HILP", "enrichment ratio": "≤ 0.25"}
{"variant": "IVNS", "enrichment ratio": "≤ 0.25"}
{"variant": "NPDM", "enrichment ratio": "≤ 0.25"}
{"variant": "VRVV", "enrichment ratio": "≤ 0.25"}
{"variant": "APAH", "enrichment ratio": "≤ 0.25"}
{"variant": "TESY", "enrichment ratio": 23.2}
{"variant": "RLNP", "enrichment ratio": "≤ 0.25"}
{"variant": "ANNV", "enrichment ratio": 4.18}
{"variant": "IFFE", "enrichment ratio": "≤ 0.25"}
{"variant": "MDPQ", "enrichment ratio": "≤ 0.25"}
{"variant": "SKIW", "enrichment ratio": "≤ 0.25"}
{"variant": "YDKR", "enrichment ratio": "≤ 0.25"}
{"variant": "PLHQ", "enrichment ratio": "≤ 0.25"}
{"variant": "DQCH", "enrichment ratio": "≤ 0.25"}
{"variant": "QWPS", "enrichment ratio": "≤ 0.25"}
{"variant": "TRCP", "enrichment ratio": "≤ 0.25"}
{"variant": "MLKF", "enrichment ratio": "≤ 0.25"}
{"variant": "AWDY", "enrichment ratio": "≤ 0.25"}
{"variant": "KGGQ", "enrichment ratio": "≤ 0.25"}
{"variant": "SHQH", "enrichment ratio": "≤ 0.25"}
{"variant": "SYSE", "enrichment ratio": "≤ 0.25"}
{"variant": "DMIY", "enrichment ratio": "≤ 0.25"}
{"variant": "DWVN", "enrichment ratio": "≤ 0.25"}
{"variant": "LRED", "enrichment ratio": "≤ 0.25"}
{"variant": "QHNY", "enrichment ratio": 27.5}
{"variant": "LCKK", "enrichment ratio": "≤ 0.25"}
{"variant": "LWEQ", "enrichment ratio": "≤ 0.25"}
{"variant": "IAIQ", "enrichment ratio": "≤ 0.25"}
{"variant": "DNEW", "enrichment ratio": "≤ 0.25"}
{"variant": "DEPY", "enrichment ratio": "≤ 0.25"}
{"variant": "IQMI", "enrichment ratio": "≤ 0.25"}
{"variant": "YWVF", "enrichment ratio": "≤ 0.25"}
{"variant": "HDAF", "enrichment ratio": "≤ 0.25"}
{"variant": "CLWQ", "enrichment ratio": "≤ 0.25"}
{"variant": "SNAW", "enrichment ratio": 0.572}
{"variant": "FFES", "enrichment ratio": "≤ 0.25"}
{"variant": "DVYA", "enrichment ratio": "≤ 0.25"}
{"variant": "KETM", "enrichment ratio": "≤ 0.25"}
{"variant": "QGNV", "enrichment ratio": "≤ 0.25"}
{"variant": "TKIP", "enrichment ratio": "≤ 0.25"}
{"variant": "IKNM", "enrichment ratio": "≤ 0.25"}
{"variant": "PVDT", "enrichment ratio": "≤ 0.25"}
{"variant": "SWCV", "enrichment ratio": 0.578}
{"variant": "KDLW", "enrichment ratio": "≤ 0.25"}
{"variant": "NNWE", "enrichment ratio": "≤ 0.25"}
{"variant": "HRRC", "enrichment ratio": "≤ 0.25"}
{"variant": "KNNH", "enrichment ratio": "≤ 0.25"}
{"variant": "QEAR", "enrichment ratio": "≤ 0.25"}
{"variant": "QDHC", "enrichment ratio": "≤ 0.25"}
{"variant": "HKRE", "enrichment ratio": "≤ 0.25"}
{"variant": "ITAR", "enrichment ratio": "≤ 0.25"}
{"variant": "NLMN", "enrichment ratio": "≤ 0.25"}
{"variant": "QWDI", "enrichment ratio": "≤ 0.25"}
{"variant": "INAS", "enrichment ratio": "≤ 0.25"}
{"variant": "KADT", "enrichment ratio": "≤ 0.25"}
{"variant": "NARF", "enrichment ratio": "≤ 0.25"}
{"variant": "YFRT", "enrichment ratio": "≤ 0.25"}
{"variant": "ENSG", "enrichment ratio": "≤ 0.25"}
{"variant": "LINV", "enrichment ratio": "≤ 0.25"}
{"variant": "AKKV", "enrichment ratio": "≤ 0.25"}
{"variant": "FHWS", "enrichment ratio": "≤ 0.25"}
{"variant": "RVEN", "enrichment ratio": "≤ 0.25"}
{"variant": "RGVQ", "enrichment ratio": "≤ 0.25"}
{"variant": "FLFR", "enrichment ratio": "≤ 0.25"}
{"variant": "LMVP", "enrichment ratio": "≤ 0.25"}
{"variant": "TWHN", "enrichment ratio": "≤ 0.25"}
{"variant": "PRPP", "enrichment ratio": "≤ 0.25"}
{"variant": "ILMQ", "enrichment ratio": "≤ 0.25"}
{"variant": "GGVE", "enrichment ratio": "≤ 0.25"}
{"variant": "HYQK", "enrichment ratio": "≤ 0.25"}
{"variant": "DVSH", "enrichment ratio": "≤ 0.25"}
{"variant": "EELE", "enrichment ratio": "≤ 0.25"}
{"variant": "PGHW", "enrichment ratio": "≤ 0.25"}
{"variant": "KPSR", "enrichment ratio": "≤ 0.25"}
{"variant": "VHPR", "enrichment ratio": "≤ 0.25"}
{"variant": "EYCD", "enrichment ratio": "≤ 0.25"}
{"variant": "RAYI", "enrichment ratio": "≤ 0.25"}
{"variant": "FTSA", "enrichment ratio": "≤ 0.25"}
{"variant": "RPRF", "enrichment ratio": "≤ 0.25"}
{"variant": "EERA", "enrichment ratio": "≤ 0.25"}
{"variant": "LVFW", "enrichment ratio": "≤ 0.25"}
{"variant": "FYLC", "enrichment ratio": "≤ 0.25"}
{"variant": "RMVA", "enrichment ratio": "≤ 0.25"}
{"variant": "QVPG", "enrichment ratio": "≤ 0.25"}
{"variant": "DSYS", "enrichment ratio": "≤ 0.25"}
{"variant": "CYTN", "enrichment ratio": "≤ 0.25"}
